Some values that stand alone complete this part of the results.
B1: hTRPA1: N747Q (protein)
parent chain: MKRSLRKMWRPGEKKEPQGVVYEDVPDDTEDFKESLKVVFEGSAYGLQNFNKQKKLKRCDDMDTFFLHYAAAEGQIELMEKITRDSSLEVLHEMDDYGNTPLHCAVEKNQIESVKFLLSRGANPNLRNFNMMAPLHIAVQGMNNEVMKVLLEHRTIDVNLEGENGNTAVIIACTTNNSEALQILLKKGAKPCKSNKWGCFPIHQAAFSGSKECMEIILRFGEEHGYSRQLHINFMNNGKATPLHLAVQNGDLEMIKMCLDNGAQIDPVEKGRCTAIHFAATQGATEIVKLMISSYSGSVDIVNTTDGCHETMLHRASLFDHHELADYLISVGADINKIDSEGRSPLILATASASWNIVNLLLSKGAQVDIKDNFGRNFLHLTVQQPYGLKNLRPEFMQMQQIKELVMDEDNDGCTPLHYACRQGGPGSVNNLLGFNVSIHSKSKDKKSPLHFAASYGRINTCQRLLQDISDTRLLNEGDLHGMTPLHLAAKNGHDKVVQLLLKKGALFLSDHNGWTALHHASMGGYTQTMKVILDTNLKCTDRLDEDGNTALHFAAREGHAKAVALLLSHNADIVLNKQQASFLHLALHNKRKEVVLTIIRSKRWDECLKIFSHNSPGNKCPITEMIEYLPECMKVLLDFCMLHSTEDKSCRDYYIEYNFKYLQCPLEFTKKTPTQDVIYEPLTALNAMVQNNRIELLNHPVCKEYLLMKWLAYGFRAHMMNLGSYCLGLIPMTILVVNIKPGMAFNSTGIINETSDHSEILDTTNSYLIKTCMILVFLSSIFGYCKEAGQIFQQKRNYFMDISNVLEWIIYTTGIIFVLPLFVEIPAHLQWQCGAIAVYFYWMNFLLYLQRFENCGIFIVMLEVILKTLLRSTVVFIFLLLAFGLSFYILLNLQDPFSSPLLSIIQTFSMMLGDINYRESFLEPYLRNELAHPVLSFAQLVSFTIFVPIVLMNLLIGLAVGDIAEVQKHASLKRIAMQVELHTSLEKKLPLWFLRKVDQKSTIVYPNKPRSGGMLFHIFCFLFCTGEIRQEIPNADKSLEMEILKQKYRLKDLTFLLEKQHELIKLIIQKMEIISETEDDDSHCSFQDRFKKEQMEQRNSRWNTVLRAVKAKTHHLEP
B2: hTRPA1: N753Q (protein)
parent chain: B1 parent chain
B3: hTRPA1: N747/753Q (protein)
parent chain: B1 parent chain

Assay: fluorometric membrane depolarization, FlexStation
Conditions: glycan lost; control: wild type; AITC agonist

| Protein | other: agonist sensitivity, EC50 |
| --- | --- |
| B1 | decreases, 4.2 vs 1.8 |
| B2 | no change, 1.6 vs 1.8 |
| B3 | decreases, 3.0 vs 1.8 |

Same assay, conditions: glycan lost; control: wild type; menthol agonist

| Protein | other: agonist sensitivity, EC50 |
| --- | --- |
| B1 | decreases, 68.9 vs 29.2 |
| B2 | no change, 34.4 vs 29.2 |
| B3 | decreases, 58.0 vs 29.2 |

— PMC5052711
